biological target: CtermHisTag-mEGFR Triple Mutant (R797S, L858R, T790M) (Homo sapiens, UniProt P00533, C797S/L858R/T790M); assay: TR-FRET probe displacement, EGFR triple mutant; conditions: 1.25 nM EGFR, 100 nM probe, 30 mins room temperature

| Structure (SMILES) | IC50 |
| --- | --- |
| C#Cc1cc(=O)n(-c2ccccc2)c2cc(Nc3ccccc3OC)ncc12 [Example 3, 4-Ethynyl-7-[(2-methoxyphenyl)amino]-1-phenyl-1,6-naphthyridin-2-one] | 100 to 1000 nM |
| C#Cc1cc(=O)n(-c2ccccc2)c2nc(Nc3ccccc3)ncc12 [Example 5] | 100 to 1000 nM |
| C#Cc1cc(=O)n(-c2ccccc2)c2nc(NC3CCN(S(C)(=O)=O)CC3)ncc12 [Example 10, 5-Ethynyl-2-((1-(methylsulfonyl)piperidin-4-yl)amino)-8-phenylpyrido[2,3-d]pyrimidin-7(8H)-one] | 100 to 1000 nM |
| C#Cc1cc(=O)n(-c2ccccc2)c2nc(Nc3cnn(C4CCN(C)CC4)c3)ncc12 [Example 19, 5-Ethynyl-2-{[1-(1-methylpiperidin-4-yl)pyrazol-4-yl]amino}-8-phenylpyrido[2,3-d]pyrimidin-7-one] | 20 to 100 nM |
| C#Cc1cc(=O)n(-c2ccccc2)c2nc(Nc3ccc(C4CCN(C)CC4)cc3)ncc12 [Example 21, 5-Ethynyl-2-{[4-(1-methylpiperidin-4-yl)phenyl]amino}-8-phenylpyrido[2,3-d]pyrimidin-7-one] | < 20 nM |
| C#Cc1cc(=O)n(-c2ccccc2)c2nc(Nc3ccc(C4CCNCC4)cc3)ncc12 [Example 22, 5-Ethynyl-8-phenyl-2-{[4-(piperidin-4-yl)phenyl]amino}pyrido[2,3-d]pyrimidin-7-one] | < 20 nM |
| C#Cc1cc(=O)n(-c2ccccc2)c2nc(Nc3ccc(N4CCC(N5CCN(C)CC5)CC4)cc3)ncc12 [Example 23, 5-Ethynyl-2-({4-[4-(4-methylpiperazin-1-yl)piperidin-1-yl]phenyl}amino)-8-phenylpyrido[2,3-d]pyrimidin-7-one] | < 20 nM |
| C#Cc1cc(=O)n(-c2ccccc2)c2nc(Nc3ccc(N4CCN(C)CC4)c(CC)c3)ncc12 [Example 24, 2-{[3-Ethyl-4-(4-methylpiperazin-1-yl)phenyl]amino}-5-ethynyl-8-phenylpyrido[2,3-d]pyrimidin-7-one] | < 20 nM |
| C#Cc1cc(=O)n(-c2ccccc2)c2nc(Nc3cnn(C)c3)ncc12 [Example 25, 5-Ethynyl-2-[(1-methylpyrazol-4-yl)amino]-8-phenylpyrido[2,3-d]pyrimidin-7-one] | < 20 nM |
| C#Cc1cc(=O)n(-c2ccccc2)c2nc(Nc3ccc4c(c3)CCNCC4)ncc12 [Example 26, 5-ethynyl-8-phenyl-2-(2,3,4,5-tetrahydro-1H-3-benzazepin-7-ylamino)pyrido [2,3-d]pyrimidin-7-one] | < 20 nM |
| C#Cc1cc(=O)n(-c2ccccc2)c2nc(Nc3ccc(N4CCNC(C)C4)cc3)ncc12 (stereo not shown) [Example 27, 5-Ethynyl-2-{[4-(3-methylpiperazin-1-yl)phenyl]amino}-8-phenylpyrido[2,3-d]pyrimidin-7-one] | < 20 nM |
| C#Cc1cc(=O)n(-c2ccccc2)c2nc(Nc3ccc(N4CCC(N5CC(CO)C5)CC4)cc3)ncc12 [Example 28] | < 20 nM |
| C#Cc1cc(=O)n(-c2ccccc2)c2nc(Nc3ccc(N4CCC(N5CC(N(C)C)C5)CC4)cc3)ncc12 [Example 29, 2-[(4-{4-[3-(Dimethylamino)azetidin-1-yl]piperidin-1-yl}phenyl)amino]-5-ethynyl-8-phenylpyrido[2,3-d]pyrimidin-7-one] | < 20 nM |
| C#Cc1cc(=O)n(-c2ccccc2)c2nc(Nc3ccc(N4CCC(N5CC(F)(CO)C5)CC4)cc3)ncc12 [Example 30, 5-Ethynyl-2-[(4-{4-[3-fluoro-3-(hydroxymethyl)azetidin-1-yl]piperidin-1-yl}phenyl)amino]-8-phenylpyrido[2,3-d]pyrimidin-7-one] | < 20 nM |
| C#Cc1cc(=O)n(-c2ccccc2)c2nc(Nc3ccc(N4CCN(C)CC4)c(CO)c3)ncc12 [Example 31, 5-Ethynyl-2-{[3-(hydroxymethyl)-4-(4-methylpiperazin-1-yl)phenyl]amino}-8-phenylpyrido[2,3-d]pyrimidin-7-one] | < 20 nM |
| C#Cc1cc(=O)n(-c2ccccc2)c2nc(Nc3ccc(N(C)CCN(C)C)c(C)c3)ncc12 [Example 32, 2-[(4-{[2-(Dimethylamino)ethyl](methyl)amino}-3-methylphenyl)amino]-5-ethynyl-8-phenylpyrido[2,3-d]pyrimidin-7-one] | < 20 nM |
| C#Cc1cc(=O)n(-c2ccccc2)c2nc(Nc3ccc(N4CCC(N(C)C)CC4)cc3)ncc12 [Example 33, 2-({4-[4-(Dimethylamino)piperidin-1-yl]phenyl}amino)-5-ethynyl-8-phenylpyrido[2,3-d]pyrimidin-7-one] | < 20 nM |
| C#Cc1cc(=O)n(-c2ccccc2)c2nc(Nc3ccc(N(C)CCN(C)C)cc3)ncc12 [Example 34, 2-((4-((2-(Dimethylamino)ethyl)(methyl)amino)phenyl)amino)-5-ethynyl-8-phenylpyrido[2,3-d]pyrimidin-7(8H)-one] | < 20 nM |
| C#Cc1cc(=O)n(-c2ccccc2)c2nc(Nc3ccc(N4CCOCC4)cc3OC)ncc12 [Example 35, 5-Ethynyl-2-((2-methoxy-4-morpholinophenyl)amino)-8-phenylpyrido[2,3-d]pyrimidin-7(8H)-one] | < 20 nM |
| C#Cc1cc(=O)n(-c2ccccc2)c2nc(Nc3ccc(N(C)C(=O)CCOC)cc3OC)ncc12 [Example 36, N-(4-((5-Ethynyl-7-oxo-8-phenyl-7,8-dihydropyrido[2,3-d]pyrimidin-2-yl)amino)-3-methoxyphenyl)-3-methoxy-N-methylpropanamide] | 20 to 100 nM |
| C#Cc1cc(=O)n(-c2ccccc2)c2nc(Nc3ccc(N4CCN(C)CC4)cc3)ncc12 [Example 37, 5-Ethynyl-2-((4-(4-methylpiperazin-1-yl)phenyl)amino)-8-phenylpyrido[2,3-d]pyrimidin-7(8H)-one] | < 20 nM |
| C#Cc1cc(=O)n(-c2ccccc2)c2nc(Nc3ccc(N4CCNC5(CC5)C4)cc3)ncc12 [Example 38, 2-[(4-{4,7-Diazaspiro[2.5]octan-7-yl}phenyl)amino]-5-ethynyl-8-phenylpyrido[2,3-d]pyrimidin-7-one] | 20 to 100 nM |
| C#Cc1cc(=O)n(-c2ccccc2)c2nc(Nc3ccc(N4CCC(N5CC(COC)C5)CC4)cc3)ncc12 [Example 39, 5-Ethynyl-2-[(4-{4-[3-(methoxymethyl)azetidin-1-yl]piperidin-1-yl}phenyl)amino]-8-phenylpyrido[2,3-d]pyrimidin-7-one] | < 20 nM |
| C#Cc1cc(=O)n(-c2ccccc2)c2nc(Nc3ccc(N4CCC(N5CC(C(C)(C)O)C5)CC4)cc3)ncc12 [Example 40, 5-Ethynyl-2-[(4-{4-[3-(2-hydroxypropan-2-yl)azetidin-1-yl]piperidin-1-yl}phenyl)amino]-8-phenylpyrido[2,3-d]pyrimidin-7-one] | < 20 nM |

Now from value to compound:

| IC50 | Structure (SMILES) |
| --- | --- |
| < 20 nM | C=CC(=O)Nc1cc(=O)n(-c2ccccc2)c2nc(Nc3ccccc3OC)ncc12 [Example 2, N-(2-((2-Methoxyphenyl)amino)-7-oxo-8-phenyl-7,8-dihydropyrido[2,3-d]pyrimidin-5-yl)acrylamide] |
| < 20 nM | C#Cc1nc(=O)n(-c2ccccc2)c2nc(Nc3ccccc3OC)ncc12 [Example 4, 4-Ethynyl-7-[(2-methoxyphenyl)amino]-1-phenylpyrimido[4,5-d][1,3]diazin-2-one] |
| < 20 nM | C#Cc1cc(=O)n(-c2ccccc2)c2nc(Nc3ccc(N4CCOCC4)cc3)ncc12 [Example 6, 5-Ethynyl-2-((4-morpholinophenyl)amino)-8-phenylpyrido[2,3-d]pyrimidin-7(8H)-one] |
| < 20 nM | C#Cc1cc(=O)n(-c2ccccc2)c2nc(Nc3ccc(N(C)C(=O)CN(C)C)cc3OC)ncc12 [Example 7, 2-(Dimethylamino)-N-(4-((5-ethynyl-7-oxo-8-phenyl-7,8-dihydropyrido[2,3-d]pyrimidin-2-yl)amino)-3-methoxyphenyl)-N-methylacetamide] |
| < 20 nM | C#Cc1cc(=O)n(-c2ccccc2)c2nc(Nc3ccc(N(C)CCCN(C)C)cc3)ncc12 [Example 9, 2-((4-((3-(Dimethylamino)propyl)(methyl)amino)phenyl)amino)-5-ethynyl-8-phenylpyrido[2,3-d]pyrimidin-7(8H)-one] |
| < 20 nM | C#Cc1cc(=O)n(-c2ccccc2)c2nc(Nc3ccc(N4CCN(C)CC4)c(C)c3)ncc12 [Example 12, 5-Ethynyl-2-{[3-methyl-4-(4-methylpiperazin-1-yl)phenyl]amino}-8-phenylpyrido[2,3-d]pyrimidin-7-one] |
| < 20 nM | C#Cc1cc(=O)n(-c2ccccc2)c2nc(Nc3ccc(OCCN(C)C)cc3)ncc12 [Example 13, 2-({4-[2-(Dimethylamino)ethoxy]phenyl}amino)-5-ethynyl-8-phenylpyrido[2,3-d]pyrimidin-7-one] |
| < 20 nM | C#Cc1cc(=O)n(-c2ccccc2)c2nc(Nc3ccc(N4CCNCC4)cc3)ncc12 [Example 14, 5-Ethynyl-8-phenyl-2-{[4-(piperazin-1-yl)phenyl]amino}pyrido[2,3-d]pyrimidin-7-one] |
| < 20 nM | C#Cc1cc(=O)n(-c2ccccc2)c2nc(Nc3ccc(N4CCN(CC)CC4)cc3)ncc12 [Example 15, 2-{[4-(4-Ethylpiperazin-1-yl)phenyl]amino}-5-ethynyl-8-phenylpyrido[2,3-d]pyrimidin-7-one] |
| < 20 nM | C#Cc1cc(=O)n(-c2ccccc2)c2nc(Nc3ccc(N4CCN(C(C)C)CC4)cc3)ncc12 [Example 16, 5-Ethynyl-2-{[4-(4-isopropylpiperazin-1-yl)phenyl]amino}-8-phenylpyrido[2,3-d]pyrimidin-7-one] |
| < 20 nM | C#Cc1cc(=O)n(-c2ccccc2)c2nc(Nc3ccc(N4CCN(CCO)CC4)cc3)ncc12 [Example 17, 5-ethynyl-2-({4-[4-(2-hydroxyethyl)piperazin-1-yl]phenyl}amino)-8-phenylpyrido[2,3-d]pyrimidin-7-one] |
| < 20 nM | C#Cc1cc(=O)n(-c2ccccc2)c2nc(Nc3ccc(N4CCN(C5COC5)CC4)cc3)ncc12 [Example 18, 5-Ethynyl-2-({4-[4-(oxetan-3-yl)piperazin-1-yl]phenyl}amino)-8-phenylpyrido[2,3-d]pyrimidin-7-one] |
| < 20 nM | C#Cc1cc(=O)n(-c2ccccc2)c2nc(Nc3ccc(N4CCCNCC4)cc3)ncc12 [Example 20, 2-{[4-(1,4-Diazepan-1-yl)phenyl]amino}-5-ethynyl-8-phenylpyrido[2,3-d]pyrimidin-7-one] |
